From the supplement of paper PMC6206098
± gives the uncertainty stated by the source. Shown are siRNA guide strands that differ only in the seed, positions 2 to 7.

Assays:
3LL = experiment: cell viability relative to siNT1 control; higher = less toxic; conditions: concentration: 10 nM; 96 h; Mus musculus;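 further: Luminescence-based viability of cells reverse transfected in 384-well plates with lipid-complexed siRNAs built on a non-toxic 19mer backbone whose passenger strand carries 2′-O-methyl groups at positions 1 and 2, triplicates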
H460 = experiment: cell viability relative to lipid-only control; HeyA8 human ovarian and H460 human lung cancer; M565 mouse liver and 3LL mouse lung cancer; siNT1 is a non-toxic control siRNA; higher = less toxic; conditions: concentration: 10 nM; 96 h; Homo sapiens
Description: (§1)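 Arrayed screen of 4096 siRNA duplexes, each carrying one of all possible 6mer seeds at guide-strand positions 2-7 in a fixed neutral 19mer scaffold (constant flanks: U at position 1, then ACAUGUAAACCA, plus a 3' AA overhang). The passenger strand is 2'-O-methylated at positions 1-2 so only the guide strand loads into RISC. Duplexes were reverse-transfected at 10 nM with RNAiMAX in triplicate in 384-well plates; viability was read by CellTiter-Glo ATP content 96 h after transfection. Values are % viability normalised to lipid-only wells (HeyA8, H460, M565) or to siNT1 (3LL).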

HeyA8 = experiment: as above; conditions: concentration: 10 nM; 96 h; Homo sapiens
Description: as §1

M565 = experiment: as above; conditions: concentration: 10 nM; 96 h; Mus musculus
Description: as §1
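Wherever cell viability relative to lipid-only control is given: reverse lipid transfection in 384-well plates, in triplicate, of duplexes on a non-toxic 19mer backbone with passenger strand 2′-O-methylated at positions 1 and 2, luminescence viability read-out.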

| Sequence | cell viability (3LL) [%] | cell viability (H460) [%] | cell viability (HeyA8) [%] | cell viability (M565) [%] |
| --- | --- | --- | --- | --- |
| UAAACGGACAUGUAAACCAAA | 83.1 ± 4.8 | 69 ± 9.1 | 74.4 ± 16 | 84.8 ± 13 |
| UUUGGUGACAUGUAAACCAAA | 98.7 ± 5.5 | 77.44 ± 0.32 | 101 ± 1.9 | 79.7 ± 5.8 |
| UUAUUCAACAUGUAAACCAAA | 39.7 ± 10 | 69 ± 12 | 93.5 ± 5 | 44.2 ± 11 |
| UACAAGUACAUGUAAACCAAA | 46 ± 5.3 | 63.8 ± 2.1 | 45 ± 5 | 17.5 ± 2.7 |
| UUAACGGACAUGUAAACCAAA | 95.6 ± 8.4 | 70.9 ± 10 | 93.7 ± 9.3 | 107 ± 11 |
| UGUUUCGACAUGUAAACCAAA | 82.3 ± 5.7 | 50.9 ± 4.7 | 48.6 ± 3.9 | 78.2 ± 9 |
| UGUCGGGACAUGUAAACCAAA | 33.4 ± 0.73 | 41.8 ± 6.5 | 24.7 ± 3.9 | 23.8 ± 3.6 |
| UUUAUACACAUGUAAACCAAA | 91.9 ± 6.9 | 72.2 ± 2.6 | 89.3 ± 2.7 | 81.7 ± 11 |
| UCUGACGACAUGUAAACCAAA | 97 ± 15 | 39.6 ± 6 | 88.3 ± 2.4 | 66.5 ± 12 |
| UUCCGAAACAUGUAAACCAAA | 105 ± 18 | 84.4 ± 15 | 91.9 ± 11 | 101 ± 10 |
| UGUUAAUACAUGUAAACCAAA | 88.2 ± 4.8 | 55.9 ± 1.8 | 68.4 ± 2.9 | 49.4 ± 5.8 |
| UGCACCAACAUGUAAACCAAA | 60.8 ± 10 | 52 ± 5.8 | 59.6 ± 2.6 | 50.2 ± 1.8 |
| UACAUGGACAUGUAAACCAAA | 45.2 ± 1.8 | 45.2 ± 2.2 | 62.5 ± 5.7 | 35.2 ± 2.9 |
| UCCGAAAACAUGUAAACCAAA | 104 ± 27 | 79.5 ± 14 | 96.3 ± 16 | 78 ± 8.9 |
| UGUAACUACAUGUAAACCAAA | 67.8 ± 8.9 | 63 ± 5.2 | 48.6 ± 3.8 | 23.3 ± 4.1 |
| UCCCAGAACAUGUAAACCAAA | 103 ± 34 | 52 ± 8.9 | 87.4 ± 6.5 | 57.8 ± 4.3 |
| UUCAAUUACAUGUAAACCAAA | 94.7 ± 19 | 64.8 ± 9.1 | 86.5 ± 13 | 111 ± 9.8 |
| UAAAAUCACAUGUAAACCAAA | 88 ± 8.7 | 69.1 ± 5.5 | 86.1 ± 5.7 | 76.4 ± 18 |
| UUAGCCGACAUGUAAACCAAA | 54.8 ± 7.2 | 65.9 ± 1.2 | 69.5 ± 4 | 72.5 ± 4 |

| Sequence | cell viability (3LL) [%] | cell viability (H460) [%] | cell viability (HeyA8) [%] | cell viability (M565) [%] |
| --- | --- | --- | --- | --- |
| UAUAACCACAUGUAAACCAAA | 22 ± 2.7 | 63 ± 8.5 | 27.6 ± 3.3 | 13 ± 1.9 |
| UGGUGCCACAUGUAAACCAAA | 1.77 ± 0.35 | 6.08 ± 1.8 | 4.88 ± 3.9 | 4.69 ± 0.66 |
| UGGGCUCACAUGUAAACCAAA | 16.1 ± 1.6 | 24.9 ± 3.1 | 5.52 ± 0.71 | 16.7 ± 6.5 |
| UGAACUUACAUGUAAACCAAA | 90.3 ± 11 | 85.9 ± 14 | 52 ± 2.6 | 77.6 ± 18 |
| UAAACAAACAUGUAAACCAAA | 97.4 ± 3.1 | 110 ± 6.7 | 101 ± 4 | 92.7 ± 3.1 |
| UAUAACGACAUGUAAACCAAA | 103 ± 20 | 81 ± 9.6 | 96.6 ± 12 | 103 ± 4.7 |
| UGACGACACAUGUAAACCAAA | 37.2 ± 2.2 | 38.9 ± 5.8 | 46 ± 4.2 | 13.5 ± 2.5 |
| UCUAAAGACAUGUAAACCAAA | 92.9 ± 15 | 79.5 ± 7.4 | 82.6 ± 5.8 | 66.6 ± 14 |
| UCAGACGACAUGUAAACCAAA | 96.5 ± 15 | 56.6 ± 4.6 | 83.3 ± 7.1 | 56.6 ± 2 |
| UGUUCCAACAUGUAAACCAAA | 20.7 ± 10 | 21.7 ± 8.3 | 13.9 ± 0.19 | 14.4 ± 2.1 |
| UCUACAAACAUGUAAACCAAA | 92.5 ± 10 | 60.3 ± 3.3 | 85 ± 9.9 | 65.8 ± 7.7 |
| UGCUCCUACAUGUAAACCAAA | 9.2 ± 0.72 | 24.9 ± 0.81 | 29.5 ± 3.8 | 36.1 ± 6.8 |
| UCACCGGACAUGUAAACCAAA | 85.9 ± 17 | 40.2 ± 1.6 | 65.2 ± 1.9 | 66.6 ± 14 |
| UGCCCCAACAUGUAAACCAAA | 54.9 ± 5.1 | 64.6 ± 4.5 | 67.9 ± 1.9 | 24.7 ± 9.7 |
| UUGACGGACAUGUAAACCAAA | 50.6 ± 3.4 | 47.8 ± 5.4 | 78 ± 3.5 | 43.1 ± 5.5 |
| UUCCAUAACAUGUAAACCAAA | 103 ± 25 | 46.6 ± 7.7 | 96.3 ± 15 | 89.4 ± 5.1 |
| UAACCCGACAUGUAAACCAAA | 71 ± 2.1 | 92.5 ± 15 | 75.7 ± 5.8 | 61.1 ± 4 |
| UUAAGAGACAUGUAAACCAAA | 80 ± 3.9 | 89 ± 21 | 90.8 ± 5 | 95.4 ± 17 |
| UUCUCUGACAUGUAAACCAAA | 84.8 ± 2.4 | 69.2 ± 9.3 | 93 ± 12 | 73.9 ± 6.8 |

| Sequence | cell viability (3LL) [%] | cell viability (H460) [%] | cell viability (HeyA8) [%] | cell viability (M565) [%] |
| --- | --- | --- | --- | --- |
| UGGAUAAACAUGUAAACCAAA | 101 ± 11 | 64.9 ± 7 | 83.7 ± 5.8 | 54.2 ± 0.78 |
| UUUUGGUACAUGUAAACCAAA | 84.1 ± 13 | 57.8 ± 3.7 | 93.2 ± 7.4 | 55.7 ± 2 |
| UGCUCGGACAUGUAAACCAAA | 84.2 ± 7.1 | 58.3 ± 1.8 | 28.3 ± 3.5 | 50.1 ± 0.79 |
| UAGCUUCACAUGUAAACCAAA | 32.1 ± 5.7 | 57.5 ± 12 | 22.2 ± 1.6 | 8.01 ± 0.63 |
| UAAUUCAACAUGUAAACCAAA | 109 ± 6.4 | 92.4 ± 1.7 | 91.4 ± 6.8 | 67.5 ± 19 |
| UGCACUUACAUGUAAACCAAA | 59.2 ± 8.5 | 46.3 ± 7.8 | 38.3 ± 3.4 | 73.8 ± 5.5 |
| UUCGGUUACAUGUAAACCAAA | 88.9 ± 17 | 63.8 ± 0.82 | 72.5 ± 9.7 | 80.4 ± 12 |
| UAUUGCGACAUGUAAACCAAA | 55.3 ± 9.9 | 77.9 ± 16 | 91.5 ± 9.9 | 85.2 ± 1.4 |
| UGUGAUCACAUGUAAACCAAA | 84.9 ± 3.6 | 53.6 ± 2.3 | 31.4 ± 5 | 83.1 ± 3.1 |
| UCCGUUAACAUGUAAACCAAA | 95.8 ± 17 | 74.2 ± 23 | 85.3 ± 1.4 | 68.8 ± 6.5 |
| UUUAAGAACAUGUAAACCAAA | 92.8 ± 5.2 | 78.4 ± 17 | 102 ± 3.2 | 87 ± 13 |
| UCUGUCAACAUGUAAACCAAA | 94.9 ± 17 | 58.7 ± 4.4 | 82.8 ± 2.1 | 59.5 ± 13 |
| UCCGCCUACAUGUAAACCAAA | 86.3 ± 23 | 60 ± 3.4 | 66.7 ± 8.1 | 42.6 ± 9.4 |
| UAAGGUAACAUGUAAACCAAA | 89.9 ± 6.1 | 70.3 ± 11 | 95.1 ± 15 | 73.6 ± 8.4 |
| UCUACCCACAUGUAAACCAAA | 93.5 ± 14 | 55.7 ± 3.7 | 67.3 ± 3.5 | 23.6 ± 4.5 |
| UCCUCCAACAUGUAAACCAAA | 85.3 ± 18 | 73.5 ± 15 | 83.2 ± 7.1 | 58.4 ± 11 |
| UCUGAGAACAUGUAAACCAAA | 99.8 ± 15 | 63.9 ± 4.2 | 91.3 ± 7.7 | 68.1 ± 14 |
| UCCCGCCACAUGUAAACCAAA | 33.3 ± 6.5 | 47.6 ± 2 | 9.59 ± 1.1 | 12.4 ± 3.6 |
| UUUACAAACAUGUAAACCAAA | 94.6 ± 5.1 | 78.3 ± 8.8 | 100 ± 7.6 | 94.6 ± 3.4 |
